Assay results from patent publication US9555344.
A number of entries come with more than one value. This list holds those alone. An entry can have further records. The values listed for one entry read as repeated measurements on other runs, samples or individuals; a mean can stand among them.

Tests used:
[1] = biological target: Concanavalin A (UniProt P02866); experiment: Con A Sepharose affinity chromatography, 100 mg rHA loaded; albumin monomer in eluate by GP-HPLC as percent of load; sample final product
[2] = biological target: Concanavalin A (UniProt P02866); experiment: Con A Sepharose affinity chromatography, 100 mg rHA loaded; albumin monomer in eluate by GP-HPLC as percent of load; sample SP-FF2 flow through & washings

recombinant human albumin (rHA) from a pmt1 mutant Saccharomyces cerevisiae, purified by the process of Example 1 (from UniProt P02768 25-609)
ConA-binding rHA (% of load) [1]: 0.1, 0.11, 0.12, 0.07 % of load [columns of one line] | ConA-binding rHA (% of load) [2]: 0.1, 0.12, 0.14, 0.09 % of load [columns of one line]
